The campaign covered roughly 390,000 compounds. About 150 (0.038%) were called active. The shares of active, inactive and inconclusive entries below differ from those in the screen. Calls come from the whole dose curve; as a rule, active = well fitted inhibition curve with a large enough effect; inconclusive = small, poorly fitted or top-dose-only effect; inactive = no such curve, though single readings can be large or run the other way. Potencies of inconclusive entries are doubtful fits and often do not repeat.
Each molecule was assayed against Regulator of G-protein signaling 4 (Homo sapiens) (UniProt P49798) (assay: Inhibitors of Regulator of G Protein Signaling (RGS) 4: qHTS). Details: Transcreener GDP fluorescence polarization, RGS4-accelerated GTP hydrolysis; series mostly up to 114 µM.
Chain of UniProt P49798 (P49798 whole entry, looked up): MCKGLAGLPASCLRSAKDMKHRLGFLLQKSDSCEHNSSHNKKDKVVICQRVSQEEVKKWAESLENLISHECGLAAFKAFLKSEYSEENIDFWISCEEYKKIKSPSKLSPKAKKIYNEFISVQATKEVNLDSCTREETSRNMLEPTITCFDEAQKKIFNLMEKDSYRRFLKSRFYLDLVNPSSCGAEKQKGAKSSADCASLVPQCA
Summary of the method: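 MLSMR compounds (23 nl, pin-transferred) preincubated 10 min at room temperature with a 500nM (2x) first reagent, then RGS4 at 900nM (2x) plus Transcreener GDP mix added; fluorescence polarization (620/688 nm) read before and after 90 min at 30 °C.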
Note: nearly all actives have a fitted effect of over 75% in size.
Potency is the fitted concentration of half-maximal effect; tags give direction and shape of the fitted curve.

SMILES | Potency
Cc1nn(C)c2nc(-c3cccs3)cc(C(F)(F)F)c12 | inconclusive: 44.7 µM [inhibitor, partial curve, poor fit]
Cc1c(NC(=O)/C(=C/c2cccs2)NC(=O)c2ccccc2)c(=O)n(-c2ccccc2)n1C | inconclusive: 35.5 µM [inhibitor, full curve, poor fit]
FC(F)(F)c1nc2ccccc2n2c(-c3ccc(Cl)cc3)nnc12 | inactive
O=C(O)c1cccc(C(=O)O)c1 | inactive
CC(=O)N1CCN(c2ccc(NCc3ccccc3)cc2)CC1 | inconclusive: 79.4 µM [inhibitor, partial curve, poor fit]
Nc1cc(-c2ccccc2)ccc1O | inconclusive: 79.4 µM [inhibitor, partial curve, poor fit]
Oc1cccc(C=NCc2ccccc2)c1O | inconclusive: 50.1 µM [inhibitor, partial curve, poor fit]
O=C(Nc1ccccc1Br)C1CC(=O)N(c2ccc3c4c(cccc24)CC3)C1 (configuration not stated) | inactive
COc1cccc(-c2coc3c(C)c4oc(=O)c(CCC(=O)O)c(C)c4cc23)c1 | inconclusive: 50.1 µM [inhibitor, partial curve, poor fit]
O=C1C=C(Nc2ccccc2)C(=O)c2ccccc21 | inactive
COc1ccc2[nH]c(-c3ccccc3)c(CCNC(C)=O)c2c1 | inactive
Cn1c(=O)[nH]c2cc(-c3noc(-c4ccc(F)cc4)n3)ccc21 | inactive
O=[N+]([O-])c1ccc(C2Nc3cccc4cccc(c34)N2)cc1 | inconclusive: 17.8 µM [inhibitor, full curve, poor fit]
COc1ccc(C(Nc2cc(C)ccn2)c2ccc3ccc(C)nc3c2O)cc1 (configuration not stated) | inconclusive: 35.5 µM [inhibitor, full curve, poor fit]
O=c1nc(-c2ccccc2Cl)c2cc(F)ccc2[nH]1 | inactive
CCc1ccc(NC(=O)c2ccc3c(c2)C(=O)N(Cc2ccco2)C3=O)cc1 | inconclusive: 50.1 µM [inhibitor, partial curve, poor fit]
COC(=O)c1ccccc1NC(=O)CSc1nccn1C | inactive
Cc1ccc(C(=O)Nc2nc(-c3cc(Cl)sc3Cl)cs2)cc1 | inconclusive: 56.2 µM [inhibitor, partial curve, poor fit]
CC1CCN(CCCn2c(=S)[nH]c3c(sc4ccc([N+](=O)[O-])cc43)c2=O)CC1 | inconclusive: 79.4 µM [inhibitor, partial curve, poor fit]
CCOC(=O)N1CCN(C(=O)CCS(=O)(=O)c2ccc3c(c2)CC(C)N3C(=O)CC)CC1 (configuration not stated) | inactive
O=C(/C=C/c1cccc(F)c1)OCC(=O)N1CCCC1 | inactive

SMILES | Potency
CCc1ccc(NC(=O)CN(CC(=O)Nc2ccc(CC)cc2)CC(C)O)cc1 (configuration not stated) | inconclusive: 89.1 µM [inhibitor, partial curve, poor fit]
CN(C)c1ccc(CN(C(=O)COc2ccccc2)C2CCS(=O)(=O)C2)cc1 (configuration not stated) | inconclusive: 79.4 µM [inhibitor, single point]
COc1ccc(S(=O)(=O)N2CCN(C(=O)c3cc4c(s3)CCC4)CC2)cc1 | inconclusive: 79.4 µM [inhibitor, partial curve, poor fit]
Cc1cc(/C=N/NS(=O)(=O)c2ccc(F)c(Cl)c2)no1 | inconclusive: 56.2 µM [inhibitor, partial curve, poor fit]
COc1ccc(NS(=O)(=O)c2ccc3[nH]c4c(c3c2)CCCCCC4)cc1 | inconclusive: 44.7 µM [inhibitor, partial curve, poor fit]
CCN(CC)c1ccc(NC(=O)CSc2ccsc2[N+](=O)[O-])c(C)c1 | inconclusive: 100 µM [inhibitor, single point]
COc1ccc(CNC(=O)C/C(C)=N/NC(=O)C23CC4CC(CC(C4)C2)C3)cc1 | inconclusive: 50.1 µM [inhibitor, partial curve, poor fit]
Cc1cccc(CS(=O)(=O)c2ncc(Cl)c(C(=O)NCc3ccccc3)n2)c1 | inconclusive: 10 µM [inhibitor, full curve, poor fit]
CCN1/C(=C\c2ccc3cc(C)ccc3[n+]2CC)Sc2cc(C)c(C)cc21 | inconclusive: 89.1 µM [inhibitor, partial curve, poor fit]
CC1=NC(=O)C(N=Nc2ccccc2C(=O)O)N1c1ccccc1 (configuration not stated) | inconclusive: 100 µM [inhibitor, single point]
Cn1ccnc1SCC(=O)Nc1cc(Cl)ccc1Cl | inactive
Cc1ccc(N=N/C(=C\O)C(=O)c2ccc(Cl)cc2)cc1 | inconclusive: 70.8 µM [inhibitor, partial curve, poor fit]
COC(=O)C1=C(C(=O)OC)C(C(=O)OC)C(C(=O)OC)C(C(=O)OC)(C(=O)OC)C(C(=O)OC)=C1C(=O)OC (configuration not stated) | inconclusive: 44.7 µM [inhibitor, partial curve, poor fit]
Cc1ccc(OCC(=O)Nc2ccc(C(=O)OCc3cc(=O)n4c(C)csc4n3)cc2)cc1 | inconclusive: 39.8 µM [inhibitor, partial curve, poor fit]
S=C1NC(c2cccs2)=CC(c2ccc(Br)cc2)N1 (configuration not stated) | inconclusive: 39.8 µM [inhibitor, partial curve, poor fit]
Cc1c(C(=O)Nc2cccc([N+](=O)[O-])c2)cnn1-c1ccccc1 | inactive
Fc1ccc2nncc(SCc3ccccc3Cl)c2c1 | inactive
CCOC(=O)c1c(NC(=O)c2cc(-c3ccc(OC)cc3)on2)sc(C)c1C | inconclusive: 22.4 µM [inhibitor, full curve, poor fit]
CS(=O)(=O)c1sc2nc(-c3ccccc3)cc(-c3ccccc3)c2c1N | inconclusive: 100 µM [inhibitor, partial curve, poor fit]
CC(C)c1ccc(C(=O)CSc2ncn[nH]2)cc1 | inconclusive: 20 µM [inhibitor, full curve, poor fit]
CCC(c1nnnn1Cc1ccco1)N(CCc1ccccc1)Cc1cc2ccc(OC)cc2[nH]c1=O (configuration not stated) | inconclusive: 28.2 µM [inhibitor, full curve, poor fit]
